The chains are these.
B1: GPR68, Q15743 (parent)
chain: MGNITADNSSMSCTIDHTIHQTLAPVVYVTVLVVGFPANCLSLYFGYLQIKARNELGVYLCNLTVADLFYICSLPFWLQYVLQHDNWSHGDLSCQVCGILLYENIYISVGFLCCISVDRYLAVAHPFRFHQFRTLKAAVGVSVVIWAKELLTSIYFLMHEEVIEDENQHRVCFEHYPIQAWQRAINYYRFLVGFLFPICLLLASYQGILRAVRRSHGTQKSRKDQIQRLVLSTVVIFLACFLPYHVLLLVRSVWEASCDFAKGVFNAYHFSLLLTSFNCVADPVLYCFVSETTHRDLARLRGACLAFLTCSRTGRAREAYPLGAPEASGKSGAQGEEPELLTKLHPAFQTPNSPGSGGFPTGRLA

Data set [1] covers variants of B1. Nature of the data set: cAMP reporter score (Enrich2 score, wild type = 0); higher = more signal; HEK293T, FACS bins.
Variants of B1 are the subject of data set [2]. Put plainly: surface expression score (Enrich2 score, wild type = 0); higher = more signal; HEK293T, FACS bins.

The least precise scores are not listed. The source holds two more conditions with little spread; they are left out. Names with del lack the residues named; names with ins carry added residues between the positions named. For some assays here: The data file names ogerin without a concentration.

We go through 32 variants from the GPR68 mutational scans of Howard et al. (2025).

With E164Q, the cAMP reporter score in data set [1] (pH 5.5) was 1.07; in data set [1] (pH 6), -0.131; in data set [1] (pH 6, modulator: ogerin) it was 1.01; in data set [1] (pH 6.5, modulator: ogerin) it was -0.573. In data set [2], the surface expression score was 1.28.
For the variant E164D, the cAMP reporter score in data set [1] (pH 5.5) was -0.595; in data set [1] (pH 6) it was -0.64; in data set [1] (pH 6, modulator: ogerin) it was -1.2; in data set [1] (pH 6.5, modulator: ogerin), -1.11. For the same variant, in data set [2], the surface expression score was -0.47.
Turning to E164V, the cAMP reporter score in data set [1] (pH 5.5) is 0.4; in data set [1] (pH 6), -0.029; in data set [1] (pH 6.5, modulator: ogerin), 3.15.
For the variant E164N, the cAMP reporter score is -0.923 in data set [1] (pH 5.5); -0.668 in data set [1] (pH 6); -0.751 in data set [1] (pH 6, modulator: ogerin); -0.585 in data set [1] (pH 6.5, modulator: ogerin). The surface expression score in data set [2] turned out to be 1.66.
As to E164C, the cAMP reporter score in data set [1] (pH 5.5) was 0.616; in data set [1] (pH 6) it was -0.728; in data set [1] (pH 6, modulator: ogerin), -0.382; in data set [1] (pH 6.5, modulator: ogerin), -0.371. Further, in data set [2], the surface expression score was -0.953.
With E164S, the cAMP reporter score in data set [1] (pH 5.5) was 0.207; in data set [1] (pH 6), 0.136; in data set [1] (pH 6, modulator: ogerin), 0.499; in data set [1] (pH 6.5, modulator: ogerin) it was -0.329. Moreover, the surface expression score in data set [2] amounted to 1.66.
Turning to E164G, the cAMP reporter score in data set [1] (pH 5.5) was -0.486; in data set [1] (pH 6), -0.034.
With E164K, the cAMP reporter score in data set [1] (pH 5.5) was 0.407; in data set [1] (pH 6), -0.035; in data set [1] (pH 6, modulator: ogerin), 0.207; in data set [1] (pH 6.5, modulator: ogerin), -0.013. In addition, in data set [2], the surface expression score amounted to 0.82.
For E164L, the cAMP reporter score in data set [1] (pH 5.5) is 0.694; in data set [1] (pH 6) it was 2.34; in data set [1] (pH 6, modulator: ogerin), 1.26; in data set [1] (pH 6.5, modulator: ogerin), 2.06. Besides, in data set [2], the surface expression score turned out to be 0.476.
For the variant E164R, the cAMP reporter score is 0.154 in data set [1] (pH 5.5); -0.493 in data set [1] (pH 6); -0.631 in data set [1] (pH 6, modulator: ogerin); -0.447 in data set [1] (pH 6.5, modulator: ogerin). In data set [2], the surface expression score turned out to be 0.987.
Taken in the same sequence, the figures for E164F were -0.262, -0.43, 0.29, -0.519 and 0.122.
For E164H, the cAMP reporter score in data set [1] (pH 5.5) was 0.786; in data set [1] (pH 6), -0.17; in data set [1] (pH 6, modulator: ogerin) it was 0.579; in data set [1] (pH 6.5, modulator: ogerin), 0.564. For the same variant, the surface expression score in data set [2] stood at 0.928.
Take E164P: the cAMP reporter score in data set [1] (pH 5.5) is 1.66; in data set [1] (pH 6), -0.619; in data set [1] (pH 6, modulator: ogerin), 2.01. For the same variant, the surface expression score in data set [2] was determined as 1.89.
In the case of E164A, the cAMP reporter score was 1.87 in data set [1] (pH 5.5); 0.027 in data set [1] (pH 6); 1.59 in data set [1] (pH 6, modulator: ogerin); 1.24 in data set [1] (pH 6.5, modulator: ogerin). The surface expression score in data set [2] is 2.4.
Regarding E164T, the cAMP reporter score was determined as 0.756 in data set [1] (pH 5.5); 0.598 in data set [1] (pH 6); 0.778 in data set [1] (pH 6, modulator: ogerin); 0.768 in data set [1] (pH 6.5, modulator: ogerin). Also, in data set [2], the surface expression score is 0.523.
Turning to E164I, the cAMP reporter score in data set [1] (pH 5.5) stood at 1.48.
E164W: the cAMP reporter score in data set [1] (pH 5.5) amounted to 0.272; in data set [1] (pH 6), 0.825; in data set [1] (pH 6, modulator: ogerin) it was 0.592; in data set [1] (pH 6.5, modulator: ogerin) it was 0.076. For the same variant, the surface expression score in data set [2] came out at 0.569.
As to V171_F173del, the cAMP reporter score was -0.537 in data set [1] (pH 5.5); -0.237 in data set [1] (pH 6); -0.807 in data set [1] (pH 6, modulator: ogerin); -0.891 in data set [1] (pH 6.5, modulator: ogerin). For the same variant, in data set [2], the surface expression score was -1.46.
Taken in the same sequence, the figures for H169_R170del were -1.55, -1.07, -1.92, -2.04 and -0.354.
H169_R170insG: the cAMP reporter score in data set [1] (pH 5.5) was -1.04; in data set [1] (pH 6), -0.084; in data set [1] (pH 6, modulator: ogerin), -1.3; in data set [1] (pH 6.5, modulator: ogerin), -0.281. The surface expression score in data set [2] turned out to be 2.12.
Turning to E166del, the cAMP reporter score in data set [1] (pH 5.5) is -0.644; in data set [1] (pH 6, modulator: ogerin), -1.08; in data set [1] (pH 6.5, modulator: ogerin), -0.055. Also, in data set [2], the surface expression score was -0.287.
With Q168_H169insGS, the cAMP reporter score is -1.07 in data set [1] (pH 5.5); -1.02 in data set [1] (pH 6); -1.3 in data set [1] (pH 6, modulator: ogerin); -1.83 in data set [1] (pH 6.5, modulator: ogerin). Also, the surface expression score in data set [2] stood at 0.796.
With H159W, the cAMP reporter score in data set [1] (pH 5.5) turned out to be 1.66; in data set [1] (pH 6), 0.495; in data set [1] (pH 6, modulator: ogerin), 0.395; in data set [1] (pH 6.5, modulator: ogerin) it was 0.252. For the same variant, the surface expression score in data set [2] is -1.01.
As for H159M, the cAMP reporter score is -0.78 in data set [1] (pH 5.5); -1.45 in data set [1] (pH 6); -1.14 in data set [1] (pH 6, modulator: ogerin); -1.59 in data set [1] (pH 6.5, modulator: ogerin). Besides, the surface expression score in data set [2] was -0.224.
As for H159F, the cAMP reporter score in data set [1] (pH 5.5) is -0.102; in data set [1] (pH 6) it was -0.355; in data set [1] (pH 6, modulator: ogerin), -0.258; in data set [1] (pH 6.5, modulator: ogerin), 0.021. Also, the surface expression score in data set [2] was -0.994.
For H159S, the cAMP reporter score was 0.346 in data set [1] (pH 5.5); -0.365 in data set [1] (pH 6); -1.09 in data set [1] (pH 6, modulator: ogerin); -0.567 in data set [1] (pH 6.5, modulator: ogerin). The surface expression score in data set [2] is 0.937.
In the case of H159E, the cAMP reporter score in data set [1] (pH 5.5) is 0.108; in data set [1] (pH 6), -0.9; in data set [1] (pH 6, modulator: ogerin), -1.23; in data set [1] (pH 6.5, modulator: ogerin) it was -0.667. Further, the surface expression score in data set [2] turned out to be 0.334.
Regarding H159V, the cAMP reporter score in data set [1] (pH 5.5) was -0.901; in data set [1] (pH 6), -0.711; in data set [1] (pH 6, modulator: ogerin), -0.573; in data set [1] (pH 6.5, modulator: ogerin) it was -1.17. The surface expression score in data set [2] was -0.834.
The corresponding values for H159R are -0.322, -0.605, -1.23, -0.42 and -0.294.
Turning to H159N, the cAMP reporter score in data set [1] (pH 5.5) was 1.3; in data set [1] (pH 6) it was -0.058; in data set [1] (pH 6, modulator: ogerin), 0.765; in data set [1] (pH 6.5, modulator: ogerin), -0.61. Further, the surface expression score in data set [2] was found to be 0.676.
Consider H159Y, for which the cAMP reporter score in data set [1] (pH 5.5) is -0.654; in data set [1] (pH 6), -0.377; in data set [1] (pH 6, modulator: ogerin), -0.609; in data set [1] (pH 6.5, modulator: ogerin), -0.65. Also, the surface expression score in data set [2] is -0.489.
Regarding H159Q, the cAMP reporter score was 0.5 in data set [1] (pH 5.5); 0.383 in data set [1] (pH 6); -0.84 in data set [1] (pH 6, modulator: ogerin); -1.27 in data set [1] (pH 6.5, modulator: ogerin). For the same variant, the surface expression score in data set [2] stood at 1.29.
